According to the supplement of paper PMC7826260:
The other results are listed elsewhere or left out. One pool of 16,384 single-stranded DNAs met each Rep nickase domain in vitro for 1 h at 37 °C with 3 µM enzyme; only the middle of the 90-letter strands is printed. Values are log2 of uncut reads against the no-enzyme pool; the lower, the more was cut; hits are not called. Counts are relative to all reads; uncut strands gain when others are lost, and binding without cutting may add a little.

How the values were obtained:
Assay in all cases: uncleaved DNA left, log2 of reads against the no-enzyme library (log2 ratio); higher = less cleavage (more negative = more Rep cleavage of the k-mer); sequences stand for … in CTCGTCCG…ACCGGAGA
[1] = test system: T1, Rep nickase domain of Muscovy duck circovirus
T1 sequence (protein, residues 1-111, tag omitted): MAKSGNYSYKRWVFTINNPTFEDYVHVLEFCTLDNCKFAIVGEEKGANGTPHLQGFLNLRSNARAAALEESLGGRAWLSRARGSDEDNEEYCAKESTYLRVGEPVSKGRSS
Procedure: (§1)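 A pool of 90-nt single-stranded DNAs with seven random bases just before the constant AC of the nick site (name = the seven bases) was cut by 3 µM recombinant His6-SUMO-tagged Rep nickase domain (300 nM DNA, 50 mM HEPES pH 8.0, 50 mM NaCl, 1 mM MnCl2, 1 h, 37 °C, three replicates). Uncut DNA was amplified and sequenced.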

[2] = test system: T2, Rep nickase domain of banana bunchy top virus
T2 sequence (protein, residues 1-94, tag omitted): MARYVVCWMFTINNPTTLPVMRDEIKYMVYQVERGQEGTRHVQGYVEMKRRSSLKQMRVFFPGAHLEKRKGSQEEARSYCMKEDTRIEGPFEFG
Procedure: as §1

[3] = test system: T3, Rep nickase domain of cabbage leaf curl virus
T3 sequence (protein, residues 1-116, tag omitted): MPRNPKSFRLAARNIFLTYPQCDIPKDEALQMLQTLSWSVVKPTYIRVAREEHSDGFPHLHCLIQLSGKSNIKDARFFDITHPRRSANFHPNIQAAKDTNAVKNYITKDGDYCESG
Procedure: as §1

[4] = test system: T4, Rep nickase domain of chickpea chlorotic dwarf virus
T4 sequence (protein, residues 1-124, tag omitted): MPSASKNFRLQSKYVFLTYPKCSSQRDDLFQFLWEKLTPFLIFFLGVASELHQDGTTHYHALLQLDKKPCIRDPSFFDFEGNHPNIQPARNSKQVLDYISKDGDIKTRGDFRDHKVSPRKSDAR
Procedure: as §1

[5] = test system: T5, Rep nickase domain of faba bean necrotic yellows virus
T5 sequence (protein, residues 1-98, tag omitted): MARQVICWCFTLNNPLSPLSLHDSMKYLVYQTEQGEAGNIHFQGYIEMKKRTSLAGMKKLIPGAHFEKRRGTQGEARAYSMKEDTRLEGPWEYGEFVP
Procedure: as §1

[6] = test system: T6, Rep nickase domain of maize striate mosaic virus
T6 sequence (protein, residues 1-117, tag omitted): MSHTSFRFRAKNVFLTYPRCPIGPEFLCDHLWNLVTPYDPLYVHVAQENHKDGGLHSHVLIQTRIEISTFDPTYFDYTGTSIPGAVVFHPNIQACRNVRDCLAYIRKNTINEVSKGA
Procedure: as §1

[7] = test system: T7, Rep nickase domain of porcine circovirus 2
T7 sequence (protein, residues 2-116, tag omitted): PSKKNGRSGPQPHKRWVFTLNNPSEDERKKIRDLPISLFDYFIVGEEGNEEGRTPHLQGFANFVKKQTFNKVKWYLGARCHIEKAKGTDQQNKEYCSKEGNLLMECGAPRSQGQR
Procedure: as §1

[8] = test system: T8, Rep nickase domain of tomato golden mosaic virus
T8 sequence (protein, residues 1-124, tag omitted): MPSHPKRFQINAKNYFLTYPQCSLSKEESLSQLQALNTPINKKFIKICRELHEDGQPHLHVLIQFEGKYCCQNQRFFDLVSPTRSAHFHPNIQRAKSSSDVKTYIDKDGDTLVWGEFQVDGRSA
Procedure: as §1

[9] = test system: T9, Rep nickase domain of tomato yellow leaf curl virus
T9 sequence (protein, residues 1-136, tag omitted): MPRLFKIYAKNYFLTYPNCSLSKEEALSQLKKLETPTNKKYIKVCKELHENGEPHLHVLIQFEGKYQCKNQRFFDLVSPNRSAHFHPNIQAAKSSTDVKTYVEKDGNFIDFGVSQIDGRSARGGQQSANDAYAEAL
Procedure: as §1

[10] = test system: T10, Rep nickase domain of wheat dwarf virus
T10 sequence (protein, residues 1-137, tag omitted): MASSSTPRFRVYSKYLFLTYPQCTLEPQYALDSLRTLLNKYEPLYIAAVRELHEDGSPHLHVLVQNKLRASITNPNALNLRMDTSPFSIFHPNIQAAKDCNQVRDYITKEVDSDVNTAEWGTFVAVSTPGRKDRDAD
Procedure: as §1

Sequence | uncleaved DNA left (log2) [1] | uncleaved DNA left (log2) [2] | uncleaved DNA left (log2) [3] | uncleaved DNA left (log2) [4] | uncleaved DNA left (log2) [5] | uncleaved DNA left (log2) [6] | uncleaved DNA left (log2) [7] | uncleaved DNA left (log2) [8] | uncleaved DNA left (log2) [9] | uncleaved DNA left (log2) [10]
AGTCATA | 0.0465 | 0.0732 | -0.019 | -0.355 | 0.00505 | 0.0465 | -1.02 | 0.0479 | 0.00167 | 0.0464
GAGCACT | -0.0621 | -0.0741 | -0.00977 | 0.245 | -0.0366 | 1.42 | -1.12 | -0.113 | -0.0436 | 0.0485
CAACTCG | 0.0485 | 0.0622 | -0.79 | -0.853 | 0.142 | -0.931 | 0.136 | 0.116 | 0.0789 | 0.0231
TCTTCGC | 0.0771 | -0.141 | -0.54 | -0.794 | 0.0629 | -1.09 | 0.00197 | -0.0799 | -0.00908 | -0.142
ATACAGC | 0.0172 | 0.0118 | -0.338 | -0.697 | 0.0374 | -0.88 | 0.23 | -0.00267 | 0.0874 | 0.0261
ATATCAG | 0.0167 | -0.063 | -0.758 | -0.375 | 0.0525 | -1.19 | 0.178 | 0.00636 | 0.0218 | -0.0309
GGAACCG | 0.025 | 0.11 | 0.0645 | 0.16 | 0.0564 | -0.128 | 0.131 | 0.127 | 0.047 | 0.0782
GGCTGAA | -0.0312 | 0.0266 | 0.406 | 1.24 | 0.106 | 1.56 | -0.00693 | -0.0174 | 0.105 | 0.158
GGCCGAC | 0.0559 | 0.0099 | 0.625 | 1.59 | 0.0132 | 1.77 | 0.222 | 0.0985 | 0.0995 | 0.0857
TTATGGC | 0.101 | 0.0401 | -0.114 | -0.361 | 0.121 | -0.932 | -0.0277 | -0.107 | 0.113 | -0.00273
ATCCGGT | 0.046 | -0.00351 | 0.22 | 0.492 | 0.0416 | 0.502 | 0.0841 | 0.184 | -0.0226 | 0.0927
TATTCGT | -3.4 | -1.49 | -0.653 | -1.45 | 0.0294 | -1.31 | -3.73 | -0.165 | -0.0587 | -0.226
CCCGAGT | -0.0678 | -0.23 | 0.48 | 0.535 | -0.131 | -0.176 | -0.185 | -0.257 | -0.13 | -0.0946
GCATCTG | 0.0554 | 0.0148 | -0.101 | 0.446 | 0.0303 | 0.327 | 0.0374 | -0.0191 | 0.0302 | 0.0547
CATTCCC | -0.15 | -0.397 | 0.0996 | -0.2 | 0.0454 | -0.449 | -0.695 | -0.059 | 0.0247 | 0.0869
